Experimental data as given in the supplement of paper PMC4604168 (melanoma cell lines).
The other results are listed elsewhere or left out. Single values are uncertain, as repeats are few or missing.

Experiments:
Assay in all cases: cell count relative to DMSO control; melanoma cells; higher = more viable cells
Settings in all cases: library dose: standard library concentration; 72 h
G361 = tested on: G361
IPC-298 = tested on: IPC-298
IST-MEL1 = tested on: IST-MEL1
LB2518-MEL = tested on: LB2518-MEL
LOXIMVI = tested on: LOXIMVI
MEL-HO = tested on: MEL-HO
MZ2-MEL = tested on: MZ2-MEL
MeWo = tested on: MeWo
RPMI7951 = tested on: RPMI7951
RVH-421 = tested on: RVH-421
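Note: cells treated in 1,536-well plates, then fixed and DAPI-stained, with nuclei counted from automated high-throughput microscope images.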

Row | Structure (SMILES) | cell count (G361) | cell count (IPC-298) | cell count (IST-MEL1) | cell count (LB2518-MEL) | cell count (LOXIMVI) | cell count (MEL-HO) | cell count (MZ2-MEL) | cell count (MeWo) | cell count (RPMI7951) | cell count (RVH-421)
1 | CC1(C)CCC(c2ccc(Cl)cc2)=C(CN2CCN(c3ccc(C(=O)NS(=O)(=O)c4ccc(N[C@H](CCN5CCOCC5)CSc5ccccc5)c(S(=O)(=O)C(F)(F)F)c4)cc3)CC2)C1 + Cn1cc(/C=C2\C(=O)Nc3cccnc32)c2ccccc21 [GW441756] (first compound 2 µM, partner dose 2 µM) | 83.5% | 80.9% | 76.8% | 80.2% | 75.4% | 79.4% | 81.5% | 96.7% | 50.8% | 107%
2 | CC1(C)CCC(c2ccc(Cl)cc2)=C(CN2CCN(c3ccc(C(=O)NS(=O)(=O)c4ccc(N[C@H](CCN5CCOCC5)CSc5ccccc5)c(S(=O)(=O)C(F)(F)F)c4)cc3)CC2)C1 + CCCS(=O)(=O)Nc1ccc(F)c(C(=O)c2c[nH]c3ncc(Cl)cc23)c1F [PLX4720] (first compound 2 µM, partner dose 0.4 µM) | 44.1% | 71.2% | 86.5% | 89.7% | 49.9% | 51.3% | 80.1% | 75.9% | 38.9% | 23.5%
3 | Cc1ccc(Nc2nccc(N(C)c3ccc4c(C)n(C)nc4c3)n2)cc1S(N)(=O)=O [Pazopanib] + Nc1cccc2c1CN(C1CCC(=O)NC1=O)C2=O [lenalidomide] (first compound 2 µM, partner dose 5 µM) | 97.1% | 68.7% | 92.7% | 85.6% | 112% | 88.4% | 71.2% | 107% | 79.2% | 66.9%
4 | Cc1ccc(Nc2nccc(N(C)c3ccc4c(C)n(C)nc4c3)n2)cc1S(N)(=O)=O [Pazopanib] + CC(C)CCN1c2nc(Nc3cc(F)c(O)c(F)c3)ncc2N(C)C(=O)C1C [BID1870] (first compound 2 µM, partner dose 1 µM) | 52.4% | 61.6% | 83.5% | – | 71.4% | 73.8% | – | 72.1% | 77.2% | 78.5%
5 | CC1(C)CCC(c2ccc(Cl)cc2)=C(CN2CCN(c3ccc(C(=O)NS(=O)(=O)c4ccc(N[C@H](CCN5CCOCC5)CSc5ccccc5)c(S(=O)(=O)C(F)(F)F)c4)cc3)CC2)C1 + CCCCCCCCc1ccc(CCC(N)(CO)CO)cc1 [fingolimod] (first compound 2 µM, partner dose 10 µM) | 0.273% | 0.296% | 3.57% | 0.902% | 22.6% | 0.616% | 1.63% | 7% | 0.673% | 7.96%
6 | Cc1ccc(Nc2nccc(N(C)c3ccc4c(C)n(C)nc4c3)n2)cc1S(N)(=O)=O [Pazopanib] + O=C(Nc1cccc(Cl)c1)Nc1ncc(CCNc2ncnc3ccsc23)s1 [SNS314] (first compound 2 µM, partner dose 0.004 µM) | 66% | 62.5% | 59% | 60.1% | 56.8% | 66.2% | 65.2% | 63.4% | 47.4% | 73%
7 | CC1(C)CCC(c2ccc(Cl)cc2)=C(CN2CCN(c3ccc(C(=O)NS(=O)(=O)c4ccc(N[C@H](CCN5CCOCC5)CSc5ccccc5)c(S(=O)(=O)C(F)(F)F)c4)cc3)CC2)C1 + Oc1cc(-c2nc(-c3ccccc3)[nH]c2-c2ccncc2)ccc1Cl [L779450] (first compound 2 µM, partner dose 1 µM) | 29.5% | 81.5% | 58.3% | 81.7% | 29.3% | 55.1% | 86.3% | 81.4% | 32% | 19%
8 | O=C(/C=C/c1cccnc1)NCCCCC1CCN(C(=O)c2ccccc2)CC1 + COc1cc(Nc2ncc(F)c(Nc3ccc4c(n3)NC(=O)C(C)(C)O4)n2)cc(OC)c1OC [Tamatinib] (first compound 0.05 µM, partner dose 2 µM) | 4.1% | 21.4% | 24.4% | 40.1% | 42.8% | 33.8% | 43.8% | 92.1% | 52.3% | 10.9%
9 | CC1(C)CCC(c2ccc(Cl)cc2)=C(CN2CCN(c3ccc(C(=O)NS(=O)(=O)c4ccc(N[C@H](CCN5CCOCC5)CSc5ccccc5)c(S(=O)(=O)C(F)(F)F)c4)cc3)CC2)C1 + NC(=O)c1ccc(N(C(N)=O)c2c(F)cccc2F)nc1-c1ccc(F)cc1F [VX702] (first compound 2 µM, partner dose 2 µM) | 88.2% | 79.4% | 78.7% | 65.7% | 33.9% | 59.5% | 83.1% | 77% | 41.1% | 62%
10 | CC1(C)CCC(c2ccc(Cl)cc2)=C(CN2CCN(c3ccc(C(=O)NS(=O)(=O)c4ccc(N[C@H](CCN5CCOCC5)CSc5ccccc5)c(S(=O)(=O)C(F)(F)F)c4)cc3)CC2)C1 + C=CCNC1=C2C[C@@H](C)C[C@H](OC)[C@H](O)[C@@H](C)/C=C(\C)[C@H](OC(N)=O)[C@@H](OC)/C=C\C=C(/C)C(=O)NC(=CC1=O)C2=O [Tanespimycin] (first compound 2 µM, partner dose 0.01 µM) | 49.4% | 86.4% | 42.7% | – | 72.2% | 66.2% | – | 83.8% | 8.11% | 52.2%
11 | O=C(/C=C/c1cccnc1)NCCCCC1CCN(C(=O)c2ccccc2)CC1 + Nc1nc(F)nc2c1ncn2[C@@H]1O[C@H](CO)[C@@H](O)[C@@H]1O [fludarabine] (first compound 0.05 µM, partner dose 1 µM) | 3.13% | 32.2% | 50.1% | – | 78.5% | 37.2% | – | 89.4% | 78.5% | 30.4%
12 | CC1(C)CCC(c2ccc(Cl)cc2)=C(CN2CCN(c3ccc(C(=O)NS(=O)(=O)c4ccc(N[C@H](CCN5CCOCC5)CSc5ccccc5)c(S(=O)(=O)C(F)(F)F)c4)cc3)CC2)C1 + Nc1cccc2c1CN(C1CCC(=O)NC1=O)C2=O [lenalidomide] (first compound 2 µM, partner dose 5 µM) | 76.1% | 97% | 73.5% | – | 47.8% | 55.8% | – | 84.7% | 59.7% | 72.2%
13 | O=C(/C=C/c1cccnc1)NCCCCC1CCN(C(=O)c2ccccc2)CC1 + COc1ccc(Cl)c(Nc2nc3ccccc3nc2NS(=O)(=O)c2cccc(NC(=O)C(C)(C)N)c2)c1 [XL147] (first compound 0.05 µM, partner dose 4 µM) | 3.18% | 34.2% | 49.2% | 52.6% | 99.4% | 43.3% | 39% | 112% | 92.4% | 32.5%
14 | Cc1ccc(Nc2nccc(N(C)c3ccc4c(C)n(C)nc4c3)n2)cc1S(N)(=O)=O [Pazopanib] + C=C(c1ccc(C(=O)O)cc1)c1cc2c(cc1C)C(C)(C)CCC2(C)C [Bexarotene] (first compound 2 µM, partner dose 10 µM) | 74.4% | 59.5% | 105% | 113% | 148% | 74.2% | 57.9% | 94.6% | 69.2% | 79.2%
15 | O=C(/C=C/c1cccnc1)NCCCCC1CCN(C(=O)c2ccccc2)CC1 + CCN(CC)CCCCNc1ncc2cc(-c3cc(OC)cc(OC)c3)c(NC(=O)NC(C)(C)C)nc2n1 [PD173074] (first compound 0.05 µM, partner dose 0.5 µM) | 2.56% | 36.7% | 59.2% | – | 55.7% | 47.2% | – | 96.3% | 79.5% | 66.2%
16 | CC1(C)CCC(c2ccc(Cl)cc2)=C(CN2CCN(c3ccc(C(=O)NS(=O)(=O)c4ccc(N[C@H](CCN5CCOCC5)CSc5ccccc5)c(S(=O)(=O)C(F)(F)F)c4)cc3)CC2)C1 + O=C(Nc1cccc(Cl)c1)Nc1ncc(CCNc2ncnc3ccsc23)s1 [SNS314] (first compound 2 µM, partner dose 0.004 µM) | 63.7% | 88% | 23.5% | – | 26.9% | 39.5% | – | 37.3% | 16.3% | 28.9%
17 | CC1(C)CCC(c2ccc(Cl)cc2)=C(CN2CCN(c3ccc(C(=O)NS(=O)(=O)c4ccc(N[C@H](CCN5CCOCC5)CSc5ccccc5)c(S(=O)(=O)C(F)(F)F)c4)cc3)CC2)C1 + COc1ccc2c(c1)CCC1C2CCC2(C)C(NCCCCCCN3C(=O)C=CC3=O)CCC12 [U73122] (first compound 2 µM, partner dose 2 µM) | 65.4% | 102% | 83% | – | 27.6% | 63% | – | 49.8% | 6.33% | 44.6%
18 | O=C(/C=C/c1cccnc1)NCCCCC1CCN(C(=O)c2ccccc2)CC1 + CC1(C)CCC(c2ccc(Cl)cc2)=C(CN2CCN(c3ccc(C(=O)NS(=O)(=O)c4ccc(N[C@H](CCN5CCOCC5)CSc5ccccc5)c(S(=O)(=O)C(F)(F)F)c4)cc3)CC2)C1 [ABT263] (first compound 0.05 µM, partner dose 2 µM) | 2.43% | 13.2% | 5.53% | 20.7% | 15.6% | 3.03% | 5.23% | 81.4% | 64.7% | 4.57%
19 | Cc1ccc(Nc2nccc(N(C)c3ccc4c(C)n(C)nc4c3)n2)cc1S(N)(=O)=O [Pazopanib] + COc1ccc2c(c1)CCC1C2CCC2(C)C(NCCCCCCN3C(=O)C=CC3=O)CCC12 [U73122] (first compound 2 µM, partner dose 2 µM) | 73.6% | 81.4% | 94% | 110% | 68.1% | 89.5% | 83.5% | 79.3% | 44.9% | 100%
